{"source": "PubChem BioAssay AID1345082", "about": "(National Center for Advancing Translational Sciences (NCATS), 2018)", "note": "In all, about 94,000 compounds went through this assay and about 4,000 (4.3%) were called active. Inconclusive results, whose numbers are uncertain, are shown with a selection of clear calls. Calls follow the shape of the dose curve; as a rule, active = well fitted inhibition curve with a large enough effect; inconclusive = small, poorly fitted or top-dose-only effect; inactive = no such curve, though single readings can be large or run the other way. Potencies of inconclusive entries are doubtful fits and often do not repeat."}
{"assay": "Cytotoxic Profiling in NIH 3T3 Cell Line of Diverse Libraries Using Quantitative High-Throughput Screening; also: nearly all actives have a fitted effect of over 55% in size; also: potency is read from the fitted curve at half-maximal effect; tags tell the direction and shape of the fitted curve", "conditions": "NIH 3T3 viability, CellTiter-Glo ATP luminescence, 48-72 h; series mostly up to 96.7 µM", "procedure,_shortened": "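Luminescent ATP readout (CellTiter-Glo, 10 min RT) after 48 or 72 hr compound exposure of NIH 3T3 cells seeded at 400 cells/well in 1536-well format; quantitative HTS.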"}
{"compound": "C=CCCC(CN1CCSCC1)Oc1ncc(C)c(N(C)C)n1", "note": "(stereo unspecified)", "Potency": "inconclusive: 31.6 µM [inhibitor, partial curve, poor fit]"}
{"compound": "O=C(NCc1ccccc1Cl)c1nc2sccn2c1-c1ccc(C(F)(F)F)cc1", "Potency": "inconclusive: 31.6 µM [inhibitor, full curve]"}
{"compound": "O=C(Cc1cccs1)N1CCOc2ccc(CN3CCc4ccccc4C3)cc2C1", "Potency": "inconclusive: 39.8 µM [inhibitor, partial curve, poor fit]"}
{"compound": "CNC(=O)c1cc(C2CC2)nc2c1c(C1CCCN1C(=O)Cc1cccc(Cl)c1)nn2C", "note": "(stereo unspecified)", "Potency": "inactive"}
{"compound": "NC[C@H]1O[C@@H]2C[C@@H](CC(=O)N3CCOCC3)O[C@@H]2[C@@H]1O", "Potency": "inactive"}
{"compound": "CN(C)C(=O)N1CCCN(c2ccc3nnc(-c4ccccc4)n3n2)CC1", "Potency": "inconclusive: 70.8 µM [inhibitor, single point]"}
{"compound": "O=C(Nc1ccc(Cl)cc1)c1nc2c(o1)CCN(Cc1ccc(F)cc1F)CC2", "Potency": "inconclusive: 56.2 µM [inhibitor, partial curve, poor fit]"}
{"compound": "Cc1ccsc1C(=O)N1CC[C@@H]2COCCN(Cc3cccnc3)[C@@H]2C1", "Potency": "inconclusive: 50.1 µM [inhibitor, partial curve, poor fit]"}
{"compound": "COc1cccc(CC(=O)N2CCC(N3C(=O)C(OCC4CC4)C34CCCCC4)CC2)c1", "note": "(stereo unspecified)", "Potency": "inconclusive: 31.6 µM [inhibitor, partial curve, poor fit]"}
{"compound": "CSCc1noc(CNC(=O)CC(c2ccccc2)c2ccccc2Cl)n1", "note": "(stereo unspecified)", "Potency": "inconclusive: 50.1 µM [inhibitor, partial curve, poor fit]"}
{"compound": "COc1ccc(OCc2nc(C)c(CCO)c(=O)n2CC(=O)N(C)c2cccc(C)c2)cc1", "Potency": "inconclusive: 50.1 µM [inhibitor, partial curve, poor fit]"}
{"compound": "CCOc1ccccc1NC(=O)CC1CCCN(c2cnn(CCOC)c(=O)c2)C1", "note": "(stereo unspecified)", "Potency": "inconclusive: 50.1 µM [inhibitor, single point]"}
{"compound": "O=C(Nc1ccccc1)N1CCC(C(=O)N2CCC(N3Cc4ccccc4C3=O)CC2)CC1", "Potency": "inconclusive: 79.4 µM [inhibitor, single point]"}
{"compound": "O=C(Nc1ccon1)[C@@H]1C[C@@H](c2ccc(F)cc2)N([S+](=O)([O-])c2ccccc2)C1", "Potency": "inconclusive: 100 µM [inhibitor, partial curve, poor fit]"}
{"compound": "Cc1ccc(NC(=O)N2CCCC(c3noc(COc4ccccc4F)n3)C2)c(C)c1", "note": "(stereo unspecified)", "Potency": "inconclusive: 44.7 µM [inhibitor, partial curve, poor fit]"}
{"compound": "COc1ncccc1Nc1cnc2ccc(-c3ccc(F)cc3)nn12", "Potency": "inconclusive: 79.4 µM [inhibitor, partial curve, poor fit]"}
{"compound": "CCCCNC(=O)CC1CCN(c2ccnc(NCC)n2)CC1", "Potency": "inconclusive: 35.5 µM [inhibitor, partial curve]"}
{"compound": "O=C1CC(c2noc(-c3ccc(F)c(Cl)c3)n2)CN1c1ccc(F)cc1", "note": "(stereo unspecified)", "Potency": "inconclusive: 44.7 µM [inhibitor, partial curve, poor fit]"}
{"compound": "CC(C)NC(=O)N1CCOc2ccc(CCC(=O)NCCc3cccnc3)cc2C1", "Potency": "inactive"}
{"compound": "CC(C)(C)NC(=O)N1CCCCC1c1nc(CCOc2ccc(F)cc2)no1", "note": "(stereo unspecified)", "Potency": "inconclusive: 44.7 µM [inhibitor, partial curve, poor fit]"}
{"compound": "COc1ccc(-c2noc([C@@H]3CCCN3C(=O)C3CCN(C(=O)c4ccccc4)CC3)n2)cc1", "Potency": "inactive"}
{"compound": "Clc1ccccc1C1Cn2nnc(-c3noc(-c4cc(C5CC5)[nH]n4)n3)c2CO1", "note": "(stereo unspecified)", "Potency": "inconclusive: 70.8 µM [inhibitor, single point]"}
{"compound": "Cn1c(C(=O)N2CCN(c3ccccc3)CC2)cc2c1CCN(Cc1cccc(F)c1)C2", "Potency": "inconclusive: 44.7 µM [inhibitor, partial curve, poor fit]"}
{"compound": "CCCCCCN1CCC2(CC1)Cc1ccccc1CNC2=O", "Potency": "inactive"}
{"compound": "O[C@@H]1CC(CNCc2cccc(Cl)c2)(COc2ccccc2)C[C@@H]1O", "note": "(stereo partly specified)", "Potency": "inconclusive: 89.1 µM [inhibitor, partial curve, poor fit]"}
{"compound": "CCS(=O)(=O)c1ccc2oc([C@H]3CCN(Cc4cccc(Cl)c4)C3)nc2c1", "Potency": "inconclusive: 39.8 µM [inhibitor, partial curve, poor fit]"}
{"compound": "O=C(CNC(=O)c1ccc(-c2cnc3ccccc3c2)cc1)NCc1ccccc1F", "Potency": "inconclusive: 17.8 µM [inhibitor, partial curve, poor fit]"}
{"compound": "COCCNC(=O)CCc1c(C)nn(-c2ccc(OC)cc2)c1Oc1ccccc1F", "Potency": "inconclusive: 70.8 µM [inhibitor, single point]"}
{"compound": "O=C1NC2(CCCN(Cc3ccccc3C(F)(F)F)C2)COc2ccccc21", "note": "(stereo unspecified)", "Potency": "inconclusive: 44.7 µM [inhibitor, partial curve, poor fit]"}
{"compound": "Cc1ccccc1CN1CCCC(COc2ccccc2C(=O)N2CCCC2)C1", "note": "(stereo unspecified)", "Potency": "inconclusive: 50.1 µM [inhibitor, partial curve, poor fit]"}
{"compound": "c1ccc(-c2nc(-c3ccc(OC4CNC4)cc3)no2)cc1", "Potency": "active: 15.8 µM"}
{"compound": "Cc1noc2c(-c3ccc(N4CCOCC4)cc3)cc(-c3cccs3)nc12", "Potency": "inconclusive: 50.1 µM [inhibitor, partial curve, poor fit]"}
{"compound": "O=C(c1ccc(C(F)(F)F)cc1)N1CCC(C(=O)N2CCC(N3CCOCC3=O)CC2)CC1", "Potency": "inactive"}
{"compound": "Cc1ccccc1CCN1CCC(CN(C(=O)c2cnn(C(C)C)c2)C2CCCC2)CC1", "Potency": "inconclusive: 44.7 µM [inhibitor, partial curve]"}
{"compound": "COc1cccc(-c2cc(C(=O)N3CCC(Cn4cccn4)CC3)[nH]n2)c1", "Potency": "inconclusive: 44.7 µM [inhibitor, partial curve, poor fit]"}
{"compound": "O=C(N[C@H]1CO[C@H]2[C@@H]1OC[C@@H]2n1nnnc1Oc1ccccc1)c1ccc(C(F)(F)F)cc1", "Potency": "inconclusive: 10 µM [inhibitor, partial curve, poor fit]"}
{"compound": "Cn1ncc2c(C(=O)N3CCC(Cc4ccccc4)CC3)cc(-c3cccc(F)c3)nc21", "Potency": "inconclusive: 50.1 µM [inhibitor, partial curve, poor fit]"}
{"compound": "O=C(NC1CCCCCC1)C1CCCN(c2ccnc3ccnn23)C1", "note": "(stereo unspecified)", "Potency": "inconclusive: 56.2 µM [inhibitor, partial curve, poor fit]"}
{"compound": "O=c1n(-c2ccc(C(F)(F)F)cc2)nc2n1CCN(Cc1ccccn1)C2", "Potency": "inconclusive: 50.1 µM [inhibitor, partial curve, poor fit]"}
{"compound": "O=C1N(c2ccc(F)cc2)CCOC12CCN(Cc1ccc3[nH]ccc3c1)CC2", "Potency": "inconclusive: 112 µM [inhibitor, single point]"}
{"compound": "COc1ccc(-c2cnc3n2CC(C(=O)N2CCCCC2)CC3)cc1", "note": "(stereo unspecified)", "Potency": "inactive"}
{"compound": "Cc1ccc(C(=O)N2CCN(C(=O)c3nnn4c3COC(c3ccc(F)cc3)C4)CC2)cc1C", "note": "(stereo unspecified)", "Potency": "inconclusive: 44.7 µM [inhibitor, partial curve, poor fit]"}
{"compound": "COCc1cc(CC2(NCc3ccccc3O)COC2)no1", "Potency": "inactive"}
{"compound": "NC1CCc2nn(CC3CC3)c(=O)n2CC1", "note": "(stereo unspecified)", "Potency": "inactive"}
{"compound": "O=C(c1ccc(F)cc1)N1CCn2c(nn(-c3ccc(F)cc3)c2=O)C1", "Potency": "inactive"}
{"compound": "COc1ccc(C(=O)N2CCC(c3n[nH]c(=O)n3Cc3ccc(F)cc3)CC2)cc1F", "Potency": "inconclusive: 35.5 µM [inhibitor, partial curve]"}
{"compound": "O=C(NCc1ccccc1F)c1nc2sccn2c1-c1ccc(C(F)(F)F)cc1", "Potency": "inconclusive: 25.1 µM [inhibitor, full curve]"}
{"compound": "COc1cccc(CC(=O)N2CCC3(CC2)CC(N(Cc2ccccc2)C2CC2)CCO3)c1", "note": "(stereo unspecified)", "Potency": "inconclusive: 44.7 µM [inhibitor, partial curve, poor fit]"}
{"compound": "O=C1CO[C@H]2CCN(Cc3nccs3)CC[C@@H]2N1Cc1ccccc1", "Potency": "inconclusive: 50.1 µM [inhibitor, partial curve]"}
{"compound": "CCOC(=O)[C@H]1[C@@H](O)C(=O)N(Cc2ccccc2)C12CCN([S+](C)(=O)[O-])CC2", "Potency": "inconclusive: 70.8 µM [inhibitor, partial curve, poor fit]"}
{"compound": "C=CCCC(CN1CCOCC1)Oc1ccc2cccc(OC)c2n1", "note": "(stereo unspecified)", "Potency": "inactive"}
{"compound": "COc1ccc(NC(=O)O[C@@H]2CO[C@H]3[C@@H]2OC[C@@H]3NC(=O)Nc2cccc(C(F)(F)F)c2)cc1", "Potency": "inconclusive: 56.2 µM [inhibitor, partial curve, poor fit]"}
{"compound": "COCC(=O)N1C[C@H](NC(=O)c2nc3ccccc3n(C)c2=O)[C@@H](C2CC2)C1", "Potency": "inactive"}
{"compound": "Cc1ccn(CCC(=O)N2CC(=O)N(C3CCCCC3)CC(OCc3ccccc3)C2)n1", "note": "(stereo unspecified)", "Potency": "inactive"}
{"compound": "CCc1ccccc1CN1CCC2(Cc3ccccc3CNC2=O)C1", "note": "(stereo unspecified)", "Potency": "inconclusive: 89.1 µM [inhibitor, single point]"}
{"compound": "COc1ccc(CN2CCc3nn(CC4CC4)c(=O)n3CC2)c(Cl)c1OC", "Potency": "inconclusive: 44.7 µM [inhibitor, partial curve, poor fit]"}
{"compound": "CCCS(=O)(=O)N1CCCN(CC)C2(CCOCC2)C1", "Potency": "inactive"}
{"compound": "O=C(Cc1cccc(F)c1)N1CCC[C@H]1c1nc(-c2ccccc2Cl)no1", "Potency": "inconclusive: 56.2 µM [inhibitor, partial curve, poor fit]"}
{"compound": "COCC(=O)N1CCN(C(=O)c2cccc(-c3cccc(OC)c3)c2)CC1", "Potency": "inactive"}
{"compound": "COCCNC(=O)C[C@@H]1C[C@H]2O[C@H](CNC(=O)NC3CCC3)[C@@H](O)[C@H]2O1", "Potency": "inactive"}
{"compound": "O=C(c1ccccc1F)N1CCCC(c2noc(COc3ccccc3F)n2)C1", "note": "(stereo unspecified)", "Potency": "inconclusive: 44.7 µM [inhibitor, partial curve, poor fit]"}
